From a collection of fitness landscapes (doi:10.1126/science.1257360) come the findings set out here.

Some of the results follow.

The chains are these.
B1: PhoQ; a variant is named by its letters at X, in order, P23837 (parent)
chain: MKKLLRLFFPLSLRVRFLLATAAVVLVLSLAYGMVALIGYSVSFDKTTFRLLRGESNLFYTLAKWENNKLHVELPENIDKQSPTMTLIYDENGQLLWAQRDVPWLMKMIQPDWLKSNGFHEIEADVNDTSLLLSGDHSIQQQLQEVREDDDDAEMTHSVAVNVYPATSRMPKLTIVVVDTIPVELKSSYMVWSWFIYVLSANLLLVIPLLWVAAWWSLRPIEALAKEVRELEEHNRELLNPATTRELTSLVRNLNRLLKSERERYDKYRTTLTDLTHSLKTPLXXLQXXLRSLRSEKMSVSDAEPVMLEQISRISQQIGYYLHRASMRGGTLLSRELHPVAPLLDNLTSALNKVYQRKGVNISLDISPEISFVGEQNDFVEVMGNVLDNACKYCLEFVEISARQTDEHLYIVVEDDGPGIPLSKREVIFDRGQRVDTLRPGQGVGLAVAREITEQYEGKIVAGESMLGGARMEVIFGRQHSAPKDE

In the assay the parent is B1. The assay is described as follows: enrichment ratio after two sorts for PhoP signalling (ratio (wild type AVST 3.29)); higher = more functional. Particulars: with PhoP (E. coli).
In the case of IDAQ, the enrichment ratio is at most 0.25. Take RAEV: the enrichment ratio was at most 0.25. As to PCCP, the enrichment ratio is at most 0.25. For WFVD, the enrichment ratio was at most 0.25. On to PHTH, for which the enrichment ratio is at most 0.25. Take DKED: the enrichment ratio is at most 0.25. Next, RCWH: at most 0.25. Next, QWIP: at most 0.25; ADLH: 5.09; GGME: at most 0.25. For the variant AIAF, the enrichment ratio was 12.4. Next, NLVA: at most 0.25; KSPE: at most 0.25; VMMK: at most 0.25.

Take NTDK: the enrichment ratio is at most 0.25. Next, KFCG: at most 0.25. Next, YKRD: at most 0.25. For the variant RGKE, the enrichment ratio was at most 0.25. Consider ISND, for which the enrichment ratio is at most 0.25. Next, QVSN: 4.87.

Consider WWKA, for which the enrichment ratio was at most 0.25. Regarding PEYH, the enrichment ratio is at most 0.25.

Regarding YLMS, the enrichment ratio is at most 0.25. Next, KIFY: at most 0.25. Next, VQDD: at most 0.25; SDIE: at most 0.25. Next, TFIV: at most 0.25; ELRF: at most 0.25. Regarding HHEL, the enrichment ratio is at most 0.25. Take LIDL: the enrichment ratio is 1.03. Next, LKIG: at most 0.25. Next, MDPS: at most 0.25; PDIT: at most 0.25. Next, NYFE: at most 0.25; SDTI: 0.595. On to WCYC, for which the enrichment ratio is at most 0.25. SWPR: the enrichment ratio is at most 0.25.

As for PYMR, the enrichment ratio is at most 0.25. Next, QNRT: at most 0.25; KMNW: at most 0.25. As to LGNY, the enrichment ratio is at most 0.25. With ASNN, the enrichment ratio is at most 0.25. LQGC: the enrichment ratio is at most 0.25.

For the variant IRFS, the enrichment ratio was at most 0.25. Take KVVP: the enrichment ratio is at most 0.25. For FSHH, the enrichment ratio was at most 0.25. Next, SMSD: 1.03; VDYP: at most 0.25. Next, RSAP: at most 0.25; ETVA: at most 0.25.

As for NRTW, the enrichment ratio was at most 0.25.

Turning to VMEY, the enrichment ratio is at most 0.25. Next, RMAF: at most 0.25; PFYW: at most 0.25.

Take GNHW: the enrichment ratio is at most 0.25. On to SQVE, for which the enrichment ratio was 3.4. Next, QRMM: at most 0.25. LSTS: the enrichment ratio was at most 0.25. NFLR: the enrichment ratio is at most 0.25. Next, FSSC: at most 0.25; YYNL: at most 0.25; FVGR: at most 0.25. With GNAF, the enrichment ratio is 0.635. For the variant KIAH, the enrichment ratio was at most 0.25. For the variant KCMM, the enrichment ratio is at most 0.25. For YPQK, the enrichment ratio was at most 0.25. Next, KMSF: 0.416; FFTV: at most 0.25; HEQT: at most 0.25. Next, FLCN: at most 0.25. As for VWVL, the enrichment ratio was at most 0.25. Next, TRYY: at most 0.25.

With QQMR, the enrichment ratio was at most 0.25. Next, ADDL: at most 0.25. Next, LRHV: at most 0.25; HPNQ: at most 0.25; ILAE: at most 0.25. For the variant PLRP, the enrichment ratio was at most 0.25. For the variant IFLK, the enrichment ratio was at most 0.25. For RQRM, the enrichment ratio is at most 0.25. For the variant HRAH, the enrichment ratio was at most 0.25.

Take TGAR: the enrichment ratio was at most 0.25. With TITV, the enrichment ratio came to 15.1. In the case of HRWC, the enrichment ratio is at most 0.25. On to SHEV, for which the enrichment ratio was at most 0.25. As to PTTS, the enrichment ratio is at most 0.25. Next, IRDC: at most 0.25. MAHY: the enrichment ratio is 20.2. Next, NEGD: at most 0.25; KDHA: at most 0.25. Take LAAQ: the enrichment ratio was at most 0.25. FGGE: the enrichment ratio is at most 0.25.

Take VKSH: the enrichment ratio is at most 0.25. Next, RAED: at most 0.25. Next, KLAW: at most 0.25; PWYW: at most 0.25; VAKP: at most 0.25. With HTKN, the enrichment ratio was at most 0.25. Next, PSDG: at most 0.25; LGPC: at most 0.25; VTEH: at most 0.25.

Consider KSFP, for which the enrichment ratio is at most 0.25. Next, VWWQ: at most 0.25. Next, DYQV: at most 0.25. As to PMSH, the enrichment ratio is at most 0.25. Turning to KAHN, the enrichment ratio was at most 0.25. Next, MDSG: at most 0.25; NREI: at most 0.25. Next, FFIV: at most 0.25; RFYM: at most 0.25.

Consider VTCG, for which the enrichment ratio was at most 0.25. Next, EHNY: at most 0.25; HNYF: at most 0.25; IDFS: at most 0.25. Next, NCER: at most 0.25; ANQL: 1.42. Next, MCPH: at most 0.25. In the case of DHQM, the enrichment ratio is at most 0.25. Next, ADRS: at most 0.25; DLLK: at most 0.25; ENKP: at most 0.25.

Take RMDV: the enrichment ratio is at most 0.25. Next, KPII: at most 0.25. Consider TADV, for which the enrichment ratio was 0.922.

Turning to PTWV, the enrichment ratio was at most 0.25. Turning to HTDH, the enrichment ratio was at most 0.25.

As to ANDF, the enrichment ratio was at most 0.25. As to QWDS, the enrichment ratio is at most 0.25. With PTQV, the enrichment ratio was at most 0.25.

For QHHK, the enrichment ratio is at most 0.25. Next, GTSR: at most 0.25. Turning to FYAH, the enrichment ratio was at most 0.25. Next, LRAR: at most 0.25. Next, DFRH: at most 0.25. Regarding LFHK, the enrichment ratio is at most 0.25. Next, WPAF: at most 0.25. As for SLER, the enrichment ratio is at most 0.25. Next, WEQC: at most 0.25; KVLR: at most 0.25. As to ELMP, the enrichment ratio is at most 0.25. As for MRPQ, the enrichment ratio is at most 0.25.

With VKQD, the enrichment ratio was at most 0.25.

In the case of DCKE, the enrichment ratio was at most 0.25. Next, IWQS: at most 0.25; TKDK: at most 0.25. Regarding EREV, the enrichment ratio is at most 0.25. Next, EEHQ: at most 0.25; LDMM: at most 0.25. Regarding WFCK, the enrichment ratio is at most 0.25. Next, TMPD: at most 0.25; HCWP: at most 0.25. Next, RTYL: at most 0.25. Next, YFLM: at most 0.25.
